In PubChem BioAssay AID686978 (National Center for Advancing Translational Sciences (NCATS), 2013):
Among all 420,000 compounds or so, about 64,000 (15%) were called active. The shares of active, inactive and inconclusive entries below differ from those in the screen. Calls come from the whole dose curve; as a rule, active = well fitted inhibition curve with a large enough effect; inconclusive = small, poorly fitted or top-dose-only effect; inactive = flat fitted curve, though single readings scatter. Potencies of inconclusive entries are left out as doubtful fits.

Assay: qHTS for Inhibitors of human tyrosyl-DNA phosphodiesterase 1 (TDP1): qHTS in cells in absence of CPT; note: nearly all actives have a fitted effect of over 55% in size
Conditions: DT40 Tdp1-/- hTDP1 cells, no CPT, ATP luminescence, 48 h; activity change, negative = growth inhibition: at 46.2 µM (top of the series) unless noted
Procedure, shortened: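 Chicken DT40 Tdp1-/- cells complemented with human TDP1, screened without camptothecin (DMSO vehicle only), 400 cells/well. Compounds pin-transferred, cells incubated at 37 °C for at least 48 hr. Growth read as ATP-dependent luminescence (CellTiter-Glo, 30 min at RT).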
% is set by controls: 0 for no effect and ±100 for the full control effect; potency is the fitted concentration of half-maximal effect; tags give direction and shape of the fitted curve.

| Compound | Potency | activity change, negative = growth inhibition |
| --- | --- | --- |
| N#Cc1ccc(C(=O)Nc2nnc(-c3ccccn3)o2)cc1 | inconclusive [inhibitor, single point] |  |
| N#CCc1c(C#N)c(N)nc(N2CCCC(O)C2)c1C#N (stereo not given) | inactive |  |
| COc1ccc(N(C(C)C(=O)N/N=C/c2ccc(OC(C)C)cc2)S(C)(=O)=O)cc1 (stereo not given) |  | inconclusive: -30.2% [inhibitor] |
| CCn1c(=O)n(CC(=O)Nc2cccc(OC)c2)c(=O)c2ccccc21 |  | inconclusive: -30.8% [inhibitor] |
| Cc1sc2ncnc(N3CCC(C(=O)NNC(=O)COc4ccccc4Cl)CC3)c2c1C | inconclusive [inhibitor, single point] |  |
| COc1ccc(NC(=O)C(c2ccccc2)N(C)C(=O)/C=C\c2ccc3c(c2)OCO3)cc1 (stereo not given) | inconclusive [inhibitor, single point] |  |
| NS(=O)(=O)c1ccc(CCNC(=O)CSc2nc3ccsc3c(=O)n2Cc2ccccn2)cc1 | inactive |  |
| Cc1cccc2sc(NC(=O)CCNS(=O)(=O)c3cccc4nonc34)nc12 | active: 18.4 µM |  |
| O=C(Nc1ccccc1)Nc1ccc(Cl)c(S(=O)(=O)N2CCOCC2)c1 | inconclusive [inhibitor, single point] |  |
| COc1ccccc1NC(=O)C1=C(C)NC(SCC(=O)Nc2ccc(C(=O)O)cc2)=C(C#N)C1c1cccs1 (stereo not given) | inactive |  |
| CC(C)CN1CCN(Cc2cnc(N3CCOCC3)s2)CC1CCO (stereo not given) | inactive |  |
| COc1ccccc1N1CCN(C2CCN(C(=O)COc3ccccc3)CC2)CC1 | inactive |  |
| Cc1cc(C)n(-c2ccc(Cl)c(C(=O)Nc3ccc(OC(F)(F)F)cc3)n2)n1 |  | inconclusive: -30.2% [inhibitor] |
| CC(=O)Nc1ccc(S(=O)(=O)c2c(N)n(CCN3CCOCC3)c3nc4ccccc4nc23)cc1 | inactive |  |
| NC(=O)[C@H](Cc1cc2ccccc2s1)NC(=O)[C@@H]1CC2(CC(c3cccc(NC(=O)[C@@H]4CCC(=O)N4)c3)=NO2)CN1C(=O)/C=C/c1c(F)cccc1Cl (stereo not given in full) | inactive |  |
| O=C(Nc1ccc(NC(=O)c2sc3ccccc3c2Cl)cc1)c1ccco1 | inconclusive [inhibitor, single point] |  |
| CCOC(=O)c1sc2nccc(N(C)C)c2c1N=CNOCc1c(F)cccc1Cl | active: 23.1 µM |  |
| O=C(Nc1nc2ccccc2s1)C1CC(=O)N(c2ccc(F)cc2)C1 (stereo not given) | inactive |  |
| NC(=O)c1ccccc1NC(=O)CC12CC3CC(CC(C3)C1)C2 | inconclusive [inhibitor, partial curve, poor fit] |  |
| CCOc1ccccc1C1NC(=O)NC(C)=C1C(=O)OCc1ccccc1 (stereo not given) | inconclusive [inhibitor, partial curve, poor fit] |  |
